SMILES strings stand for the structures. The list shows a part of the results. These are further read-outs of the screen, such as a control signal, another cell line or another target. No call is given for them.

This assay can be described thus: T-type Cav3 channel lead: off-target radioligand binding panel, single 10 uM point (AID 504584). The settings on record: Ricerca radioligand binding panel, % inhibition, at 10 µM.

On to `CC(C)(C)CCN1C[C@@H]2C(CNC(=O)c3cc(Cl)cc(Cl)c3)[C@@H]2C1` (some centres not stated), for which the inhibition (measured here: Adrenergic alpha1B binding) was 71%; the inhibition (measured here: Dopamine D2 binding) was 78%; the inhibition (measured here: Dopamine D3 binding) was found to be 77%; the inhibition (measured here: L-type Ca benzothiazepine site) amounted to 69%; the inhibition (measured here: L-type Ca dihydropyridine site) was found to be 49%; the inhibition (measured here: Muscarinic M2 binding) amounted to 51%. The inhibition was 73% (measured here: Norepinephrine transporter binding); 62% (measured here: Opiate kappa binding); 46% (measured here: Serotonin 5-HT1A binding); 63% (measured here: Serotonin 5-HT2B binding); 102% (measured here: Sodium channel site 2 binding); 52% (measured here: hERG potassium channel binding).

By inhibition is commonly meant the change of the read-out against control, counted positive when it falls.

The values are drawn from PubChem BioAssay AID504584 (Vanderbilt High Throughput Screening Facility, 2011).
